Measured values from PubChem BioAssay AID1461 (National Center for Advancing Translational Sciences (NCATS), 2008).
Out of some 220,000 compounds screened, about 2,300 (1%) were called active. The shares of active, inactive and inconclusive entries below differ from those in the screen. Calls come from the whole dose curve; as a rule, active = well fitted inhibition curve with a large enough effect; inconclusive = small, poorly fitted or top-dose-only effect, or effect the other way; inactive = no such curve, though single readings can be large or run the other way. No potency is given beside an inconclusive call; the fits are too rough.
% is set by controls: 0 for no effect and ±100 for the full control effect; potency is the fitted concentration of half-maximal effect; tags give direction and shape of the fitted curve.
Note: nearly all actives have a fitted effect of over 50% in size.

The molecules below were run against Neuropeptide S receptor (Homo sapiens) (UniProt Q6W5P4) (assay: qHTS Assay for Antagonists of the Neuropeptide S Receptor: cAMP Signal Transduction). Conditions: CHO-NPSR cells, cAMP TR-FRET, antagonist mode; activity change, negative = inhibition: at 38.3 µM (top of the series) unless noted.
Chain of UniProt Q6W5P4 (Q6W5P4 whole entry, looked up): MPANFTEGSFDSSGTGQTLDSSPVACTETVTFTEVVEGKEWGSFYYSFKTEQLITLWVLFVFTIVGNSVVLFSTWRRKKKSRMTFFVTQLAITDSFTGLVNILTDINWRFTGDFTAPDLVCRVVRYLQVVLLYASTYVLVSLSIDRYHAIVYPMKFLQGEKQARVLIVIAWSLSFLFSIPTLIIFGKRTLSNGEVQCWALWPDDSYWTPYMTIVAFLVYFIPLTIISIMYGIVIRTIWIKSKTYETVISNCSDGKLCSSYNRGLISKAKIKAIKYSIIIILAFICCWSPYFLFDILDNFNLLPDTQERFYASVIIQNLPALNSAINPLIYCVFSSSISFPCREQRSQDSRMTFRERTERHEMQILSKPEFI
`Cc1ccccc1-c1ccc(Nc2ccc(N3CCOCC3)cc2)nn1` was tested, and the Potency was inconclusive [inhibitor, partial curve].
For `O=S(=O)(NC1CC1)c1ccc(S(=O)(=O)N2CCCC3(CCCCC3)C2)cc1`, the Potency was “inactive”.
With `Cc1ccc(NC(=O)COc2cccc(/C=C3\SC(=S)N(CCC(=O)O)C3=O)c2)cc1Cl` the Potency was inconclusive [inhibitor, single point].
`COc1ccc(NC(=O)/C(Cl)=C(/Cl)S(=O)(=O)Cc2ccc(C)cc2)cn1` was tested, and the Potency was active: 3.98 µM.
In the case of `O=C(OCC(F)(F)C(F)F)c1ccccc1C(=O)Oc1ccc(F)cc1F`, the Potency was inconclusive [inhibitor, single point].
With `COc1cc(/C=C(/C(=O)c2cccs2)c2nc3ccccc3[nH]2)ccc1O` the Potency was active: 10 µM.
In the case of `CC(C)(c1ccccc1)c1ccc(OCC(O)CNC2CCN(Cc3ccccc3)CC2)cc1` (stereo unspecified), the Potency was inconclusive [inhibitor, single point].
In the case of `COCCn1c(=NC(=O)c2cc(Cl)sc2Cl)sc2cc(S(N)(=O)=O)ccc21`, the Potency was inconclusive [inhibitor, single point].
With `CC1CN(C(=O)N(C)C)CCN1C(=O)N(C)C` (stereo unspecified) the Potency was “inactive”.
In the case of `Cc1cccc(N(C(=O)c2nsc(Cl)c2Cl)C(C(=O)NC2CCCC2)c2ccc(O)cc2)c1C` (stereo unspecified), the Potency was inconclusive [inhibitor, single point].
For `O=C(NCc1ccco1)C1CCN(C(=O)c2cc3sccc3n2Cc2ccc(Cl)cc2)CC1`, the Potency was inconclusive [inhibitor, single point].
For `CC1CC1c1ccc(/C=C(\C#N)C(=O)Nc2cc(Cl)ccc2Cl)o1` (stereo unspecified), the Potency was “inactive”.
In the case of `CCOc1c(Br)cc(CNc2ccc3c(c2)OCCO3)cc1OC`, the Potency was inconclusive [activator, partial curve].
`O=C(CSc1c2c(nc3ccccc13)CCC2)N1CCCC1` was tested, and the Potency was “inactive”.
In the case of `c1ccc(C2=Nn3c(nnc3-c3cc(-c4ccccc4)n[nH]3)SC2)cc1`, the Potency was inconclusive [inhibitor, partial curve].
For `O=C(CSc1nnc(-c2ccccc2)c(-c2ccccc2)n1)N1CCOCC1`, the Potency was “inactive”.
In the case of `CC(NC(=O)CSc1nc2c(c(C(F)(F)F)n1)CCc1ccccc1-2)c1ccccc1` (stereo unspecified), the Potency was inconclusive [inhibitor, single point].
`CCc1c(C)sc(NC(=O)c2ccc(Br)o2)c1C(=O)OC` was tested, and the Potency was inconclusive [inhibitor, single point].
In the case of `COc1ccc(-c2noc(CCC(=O)NCCN(C)Cc3ccccc3)n2)cc1`, the Potency was “inactive”.
With `CCCCn1c(/N=C/c2ccc(N(C)C)cc2)nc2ccccc21` the Potency was inconclusive [inhibitor, single point].
`Cc1ccc(Cl)cc1NC(=O)c1cc2ccccc2cc1O` was tested, and the Potency was inconclusive [activator, single point].
In the case of `CCCNC(=O)NC(=O)CSc1ncc(C(F)(F)F)cc1Cl`, the Potency was inconclusive [inhibitor, partial curve, poor fit].
For `CCN(CC)P(=O)(Nc1ccccc1Br)c1ccc(N(C)C)cc1NC(=O)c1ccco1` (stereo unspecified), the Potency was active: 7.94 µM.
In the case of `COc1cc(C2NC(C(=O)O)Cc3c2[nH]c2ccccc32)cc(OC)c1OC` (stereo unspecified), the Potency was “inactive”.
In the case of `CS(=O)(=O)N(CC(=O)N1CCCC1)Cc1ccc(Cl)cc1`, the Potency was “inactive”.
For `CCOC(=O)c1c(-c2ccccc2)oc2ccc(O)c(CN3CCN(C)CC3)c12`, the Potency was inconclusive [inhibitor, single point].
For `O=C(NCC(=O)N(Cc1ccccc1)C(C(=O)NC1CCCC1)c1ccco1)c1ccco1` (stereo unspecified), the Potency was “inactive”.
With `Clc1cnc(N/N=C/c2cccs2)c(Cl)c1` the Potency was “inactive”.
In the case of `Cc1cc(/C=C2\SC(=S)N(Cc3ccco3)C2=O)c(C)n1-c1cccnc1`, the Potency was inconclusive [inhibitor, partial curve].
For `COc1ccc(-n2nc([N+](=O)[O-])c(=NCc3ccco3)n2O)cc1`, the Potency was “inactive”.
For `O=S(=O)(N/N=C/c1ccc2c(c1)OCCO2)c1ccc(Cl)cc1`, the Potency was “inactive”.
With `COc1ccc(S(=O)(=O)Nc2ccc(S(=O)(=O)N(C)C)cc2)cc1[N+](=O)[O-]` the Potency was “inactive”.
For `Cc1cc2cc(CN(Cc3ccc4c(c3)OCO4)Cc3nnnn3C3CCCC3)c(=O)[nH]c2cc1C`, the Potency was inconclusive [inhibitor, single point].
With `O=C(CN1CCOCC1)NNc1c2ccccc2nc2ccccc12` the Potency was inconclusive [inhibitor, single point].
For `Cn1c(=O)c([N+](=O)[O-])c(Oc2ccccc2)c2ccccc21`, the Potency was inconclusive [activator, partial curve].
With `CC1=CC(=O)C(C(C)C)=C/C1=N/OS(=O)(=O)c1ccccc1` the Potency was active: 3.98 µM.
With `Cc1cccc2cc(CN(CC3CCCO3)C(=O)c3ccco3)c(=O)[nH]c12` (stereo unspecified) the Potency was inconclusive [inhibitor, single point].
`COc1ccc(N2C(=O)CC(NCCNc3ccc([N+](=O)[O-])cn3)C2=O)cc1` (stereo unspecified) was tested, and the Potency was “inactive”.
`Cc1nn2c3c(cnc2c1-c1ccccc1)C(=O)CC(c1ccco1)C3` (stereo unspecified) was tested, and the activity change, negative = inhibition was inactive: -2.47% [at 7.67 µM].
With `O=C(Nc1nc2c(s1)CCCC2)c1ccc2ncsc2c1` the Potency was inconclusive [inhibitor, full curve, poor fit].
`CCOC(=O)Nc1cc(Br)c2c(c1)OCCO2` was tested, and the Potency was inconclusive [activator, partial curve].
`O=C(NC1CCCCC1)C(c1ccccc1)N1CCc2ccccc21` (stereo unspecified) was tested, and the Potency was inconclusive [inhibitor, single point].
In the case of `COc1cc(OC)cc(-n2nnnc2SCC(=O)NCc2ccc3c(c2)OCO3)c1`, the Potency was inconclusive [inhibitor, full curve, poor fit].
With `CC[N+](CC)(CC#Cc1ccccc1)CC#Cc1ccccc1` the Potency was inconclusive [inhibitor, single point].
For `CC(=O)N1CCN(c2ccc(Nc3ncnc4c3oc3ccccc34)cc2)CC1`, the Potency was inconclusive [inhibitor, partial curve].
For `N#Cc1nc(Cc2ccccc2)oc1NCc1cccnc1`, the Potency was “inactive”.
